# Measurements: PubChem BioAssay AID1745853 (National Center for Advancing Translational Sciences (NCATS), 2022)
# The list shows a part of the results. The main result of the screen is listed elsewhere. These columns were measured beside it and carry no call.
# Key:
# Assay in all cases: Primary Screen for Target Class Profiling of Small Molecule Inhibitors of Methyltransferases
# [1] = target: Glycine N-methyltransferase (Homo sapiens) (UniProt Q14749); conditions: purified enzyme, MTase-Glo SAH luminescence; measured here: GNMT inhibition; at 40 µM; stronger effect = lower value
# Procedure, shortened: (§1)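 Each enzyme was reacted with SAM and its substrate, with compounds tested once at 40 uM; SAH formed was read by MTase-Glo luminescence.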
# [2] = target: Guanidinoacetate N-methyltransferase (Homo sapiens) (UniProt Q14353); conditions: purified enzyme, MTase-Glo SAH luminescence; measured here: GAMT inhibition; at 40 µM; stronger effect = lower value
# Procedure, shortened: as §1
# [3] = target: Histamine N-methyltransferase (Homo sapiens) (UniProt P50135); conditions: purified enzyme, MTase-Glo SAH luminescence; measured here: HNMT inhibition; at 40 µM; stronger effect = lower value
# Procedure, shortened: as §1
# [4] = target: Nicotinamide N-methyltransferase (Homo sapiens) (UniProt P40261); conditions: purified enzyme, MTase-Glo SAH luminescence; measured here: NNMT inhibition; at 40 µM; stronger effect = lower value
# Procedure, shortened: as §1
# [5] = target: Phenylethanolamine N-methyltransferase (Homo sapiens) (UniProt P11086); conditions: purified enzyme, MTase-Glo SAH luminescence; measured here: PNMT inhibition; at 40 µM; stronger effect = lower value
# Procedure, shortened: as §1
# % is set by controls: 0 for no effect and ±100 for the full control effect.
Compound,"activity change, negative = inhibition [1]","activity change, negative = inhibition [2]","activity change, negative = inhibition [3]","activity change, negative = inhibition [4]","activity change, negative = inhibition [5]"
CN(CC1CCOC1)C(=O)Cc1ccccc1 (stereo not drawn),-2.05%,4.09%,2.39%,1.56%,13.6%
CCOc1ccc(CN2C(=O)c3ccc(-c4ccco4)n3CC2(C)C(=O)NC2CCCCCC2)cc1 (stereo not drawn),-9.24%,4.37%,1.81%,-12.3%,-3.49%
CCOc1ccc(C(=O)Cn2nc3n(Cc4ccc(F)cc4)c(=O)c4ccccc4n3c2=O)cc1,3.78%,5.28%,6.47%,-0.182%,2.83%
CC1(C(=O)NC2CCCCCC2)Cn2c(c(-n3cccc3)c3cc(F)ccc32)C(=O)N1Cc1ccccc1 (stereo not drawn),-3.41%,-2.93%,-1.53%,-2.65%,0.752%
CC1=CCC[C@@H]2[C@@](C)(CCc3ccoc3)[C@H](C(=O)O)CC[C@@]12C,-4.93%,-5.51%,4.82%,-18.8%,-6.41%
Cc1nccn1CC(=O)N1CCCn2cc(-c3cccc(C#N)c3)nc21,-7.1%,-6.05%,-34.6%,-13.7%,-7.42%
CC12CCC3c4ccc(O)cc4CCC3C1CC(OC1OC(C(=O)O)C(O)C(O)C1O)C2O (stereo not drawn),-17.8%,-4.3%,13.3%,-14.2%,2.82%
CCCn1c(=O)c2cc(F)ccc2n2c(SCc3ccc(F)cc3)nnc12,-10.2%,1.8%,5.83%,-6.15%,2.41%
O=C(Cn1nc2n(CCc3ccccc3)c(=O)c3ccccc3n2c1=O)NCc1ccccc1,5.26%,0.749%,12.2%,3.86%,4.35%
COc1cccc(C2c3cccn3-c3sc4c(c3CN2C(=O)Nc2ccccc2)CCCC4)c1 (stereo not drawn),1.39%,2.04%,8.7%,1.89%,5.37%
COc1cc(C[C@H]2C(=O)OC[C@@H]2Cc2ccc(OC)c(OC)c2)ccc1O,5.06%,4.07%,10.4%,-8.1%,1.21%
CC1CCC(NC(=O)C2(C)Cn3c(ccc3-c3ccccc3)C(=O)N2CCCc2ccccc2)CC1 (stereo not drawn),10.5%,0.421%,6.14%,5.95%,3.54%
Brc1cccc(-c2nnn3c2nc(NC2CCCC2)c2ccccc23)c1,-4.5%,2.78%,2.06%,-5.5%,-5.53%
CC[C@H]1CN(C(=O)c2ccnc(Cl)c2)CC[C@H]1CC(=O)N1CCC(C(N)=O)CC1,-3.25%,-3.91%,-0.788%,-3.46%,-1.4%
CCOC(=O)C1CCCN(c2nc3c(S(=O)(=O)c4ccc(C)cc4)nnn3c3ccccc23)C1 (stereo not drawn),-2.81%,2.52%,4.83%,3.92%,1.36%
O=S(=O)(N[C@H]1[C@H](O)[C@H](O)C[C@@H]1c1ccc(C(F)(F)F)nc1)c1ccc(Cl)cc1,-2.56%,-2.66%,0.275%,-7.34%,28.4%
O=S(=O)(Cc1ccccc1)N1CCC(n2cnnc2C2CC2)CC1,-0.584%,-3.65%,0.607%,-8.27%,-2.81%
CC1CCN(S(=O)(=O)c2ccc3c(ccn3CCC(=O)NCCc3ccccc3)c2)CC1,-1.94%,2.83%,-3.87%,-6.07%,-1.82%
Cc1csc2c(NCCC3CN(c4cnn(C)c(=O)c4)CCO3)ncnc12 (stereo not drawn),-35%,-16.1%,-15.1%,-36.4%,-25.3%
Oc1c(C(c2ccccc2)N2CCC(O)CC2)sc2nc(-c3ccco3)nn12 (stereo not drawn),–,8.73%,–,-6.58%,5.36%

Compound,"activity change, negative = inhibition [1]","activity change, negative = inhibition [2]","activity change, negative = inhibition [3]","activity change, negative = inhibition [4]","activity change, negative = inhibition [5]"
Cc1cc(CN2CCC3(CC2)CN(C2CCC2)CC3CO)n(C)n1 (stereo not drawn),-6.25%,-11%,-7.59%,-14%,-7.51%
CC(C)CCn1c(=O)c2ccc(C(=O)NC3CCCC3)cc2n2c(=O)n(Cc3ccc(Cl)cc3)nc12,6.13%,0.638%,8.05%,3.22%,6.69%
C/C=C/C=C/C(=O)O[C@@H]1C=C2COC(=O)[C@]2(O)[C@@]2(C)CCCC(C)(C)[C@H]12,0.343%,4.79%,4.95%,-16.3%,-4.14%
C[C@@]12CC[C@@H]3[C@@](CC[C@H]4[C@@]3(C)CCC[C@@]4(C)C(=O)O)(CC1=O)C2,-4.91%,-7.23%,-2.44%,-24.4%,-9.57%
CCOCCCNC(=O)c1c(C)noc1-c1ccc(OC(F)(F)F)cc1,-5.07%,0.601%,0.334%,-3.78%,1.03%
COc1ccc(CNC(=O)CCn2ccc3cc(S(=O)(=O)N4CCCCC4)ccc32)c(OC)c1,-4.03%,0.646%,-8.76%,-21.3%,-3.86%
Fc1ccc2[nH]ccc2c1-c1nc(N2CCOCC2)c2sc(CN3CCN(CC4CC4)CC3)cc2n1,-1.66%,4.53%,-49%,-68.8%,-9.28%
CN(C)c1ccc(CNC(=O)Cn2c(=O)oc3cc(S(=O)(=O)NC4CCCC4)ccc32)cc1,2.17%,1.74%,10.2%,11.8%,0.385%
C=CCS(=O)(=O)N1CCC2(CCCN(CCCc3ccccc3)C2=O)C1 (stereo not drawn),-4.4%,-12.3%,-4.19%,-17.9%,-10.9%
Cc1ccc(N(C)S(=O)(=O)c2ccc3c(c2)n(C)c(=O)n3C)cc1,-6.01%,0%,-5.03%,-34.3%,-5.01%
CC(C)(NS(=O)(=O)c1ccc(Oc2ccc(F)cc2)cc1)C(=O)NO,-5.58%,3.94%,1.19%,-8.04%,2.95%
CC(CN1c2ccccc2Sc2ccccc21)N(C)C (stereo not drawn),-2.37%,13.1%,-10.1%,-4.49%,4.79%
CC1CCC(NS(=O)(=O)c2ccc3c(c2)n(C)c(=O)n3C)CC1 (stereo not drawn),14.6%,0%,8.87%,1%,5.54%
COC[C@H]1CCCN1[C@@H]1[C@H](O)[C@H](CO)O[C@@H]1CNCc1ccc(F)cc1,-8.78%,-6.41%,-4.52%,-9%,-0.697%
CNC(=O)c1ccccc1Sc1ccc2c(/C=C/c3ccccn3)n[nH]c2c1,-26.9%,-8.15%,-6.55%,-27.1%,-15%
Cc1ccc(NC(=O)Nc2cc(C(F)(F)F)ccc2F)cc1Nc1ccc2c(c1)NC(=O)/C2=C\c1ccc[nH]1,-17.5%,-28.7%,-14.8%,-29.6%,-15.4%
CN(C)[C@@H]1CCc2[nH]c3ccc(NC(=O)c4ccc(F)cc4)cc3c2C1,1.67%,-0.609%,-55.3%,-13%,-7.74%
Cc1ccc(Cn2c(=O)c3ccccc3n3c(SCC(=O)Nc4cccc(Cl)c4)nnc23)cc1,2.66%,4.92%,8.59%,0.941%,4.83%
CC1CC(C)CN(S(=O)(=O)c2ccc3c(c2)oc(=O)n3CC(=O)NCc2cccs2)C1 (stereo not drawn),-10.7%,-2.48%,-7.49%,-8.74%,-11.8%
